According to publication PMC4336329 (PLoS ONE, 2015):
The campaign covered roughly 310,000 compounds. About 14,000 (4.5%) showed an effect of 50% or more. The effect is printed as a negative number. The list shows a part of the results.

Target: human ether-à-go-go-related gene (hERG) potassium channel (human, UniProt Q12809)
Experiment: primary screen, population patch clamp on CHO cells stably expressing hERG
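Note: peak tail current of the secondary pulse compared with the same well before compound.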

Sequence of human ether-à-go-go-related gene (hERG) potassium channel (Q12809 whole entry, looked up): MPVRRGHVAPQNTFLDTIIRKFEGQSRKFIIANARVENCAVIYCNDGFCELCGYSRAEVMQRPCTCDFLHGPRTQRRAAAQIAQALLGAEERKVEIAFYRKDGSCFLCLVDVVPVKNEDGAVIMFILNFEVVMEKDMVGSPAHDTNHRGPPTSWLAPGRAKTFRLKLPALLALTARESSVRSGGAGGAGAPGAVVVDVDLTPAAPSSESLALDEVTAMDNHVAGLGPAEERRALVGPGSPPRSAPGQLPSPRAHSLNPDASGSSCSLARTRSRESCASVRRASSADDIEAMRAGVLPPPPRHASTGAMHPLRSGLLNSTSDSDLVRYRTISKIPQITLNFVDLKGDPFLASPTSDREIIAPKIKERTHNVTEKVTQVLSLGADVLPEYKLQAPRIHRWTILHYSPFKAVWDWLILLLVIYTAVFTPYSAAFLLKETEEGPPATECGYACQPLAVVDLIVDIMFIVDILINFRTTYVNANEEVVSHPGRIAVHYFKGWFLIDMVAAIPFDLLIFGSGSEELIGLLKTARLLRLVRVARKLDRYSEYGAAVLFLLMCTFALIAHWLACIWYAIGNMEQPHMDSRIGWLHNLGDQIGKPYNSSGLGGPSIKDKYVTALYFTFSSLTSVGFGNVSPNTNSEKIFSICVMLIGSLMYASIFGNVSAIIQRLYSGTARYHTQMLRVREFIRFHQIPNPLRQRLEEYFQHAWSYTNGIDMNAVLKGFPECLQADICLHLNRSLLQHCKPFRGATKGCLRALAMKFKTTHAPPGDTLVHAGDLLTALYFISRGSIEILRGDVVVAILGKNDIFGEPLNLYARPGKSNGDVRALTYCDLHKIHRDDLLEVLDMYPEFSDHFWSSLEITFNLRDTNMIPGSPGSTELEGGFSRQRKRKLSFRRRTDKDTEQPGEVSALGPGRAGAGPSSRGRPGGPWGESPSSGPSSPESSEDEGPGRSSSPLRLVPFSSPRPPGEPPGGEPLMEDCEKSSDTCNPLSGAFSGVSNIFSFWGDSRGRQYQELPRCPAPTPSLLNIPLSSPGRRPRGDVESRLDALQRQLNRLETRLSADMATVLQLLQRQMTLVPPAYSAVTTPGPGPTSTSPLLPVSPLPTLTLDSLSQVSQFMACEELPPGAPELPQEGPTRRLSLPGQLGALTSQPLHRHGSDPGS

Row | Compound | hERG current change (%, negative = inhibition) at 10uM [%]
1 | O=C(O)c1oc2ccccc2c1-n1cccc1 | 27
2 | CC(=O)Nc1ccc(S(=O)(=O)N(Cc2ccco2)Cc2cc3ccccc3[nH]c2=O)cc1 | 24.8
3 | O=C(NCc1ccccc1)NC(=O)c1ccncc1 | 0.815
4 | COc1ccccc1CSc1nc2ccccc2[nH]1 | -12.5
5 | COC(=O)C(C)Sc1nc2c(cnn2-c2ccc(F)cc2)c(=O)[nH]1 (stereo not drawn) | 13.7
6 | Nc1nc(C2CCOCC2)cs1 | 8.78
7 | COc1ccc(N2CCN(C(=O)c3ccc(S(=O)(=O)NCc4ccco4)cc3)CC2)cc1 | -54.7
8 | Nc1c(Cl)cc(-c2csc(N3CCCC3c3nc4cc(Cl)c(Cl)cc4n3CCOCCO)n2)cc1Cl (stereo not drawn) | -0.601
9 | Cc1cc(C)n2nc(SCC(=O)N(C)c3c(N)n(Cc4ccccc4)c(=O)[nH]c3=O)nc2n1 | 28.1
10 | O=C(COC(=O)c1cc(Br)ccc1O)NCC1CCCO1 (stereo not drawn) | 4.13
11 | Cc1nc2ccc(NC(=O)N3CCCCC3)cc2s1 | 0.154
12 | CC(NC(=O)c1ccco1)C(c1cccs1)N1CCOCC1 (stereo not drawn) | 10.9
13 | Cc1cc(C)n(C2CCCCC2OC(=O)c2ccccc2)n1 (stereo not drawn) | 15
14 | COc1ccc(CCC(=O)NC(C)C2CCCO2)cc1 (stereo not drawn) | 18.3
15 | Cc1cc(C)cc(NC(=O)CCn2c(=O)c3cccn3c3ccccc32)c1 | -1.37
16 | O=C(CNc1ccc(Br)cc1)NNC1=NCCC1 | 1.72
17 | COc1ccc(N2CCN(CCNC(=O)CCCn3c(=O)[nH]c4cc(Cl)ccc4c3=O)CC2)cc1 | -48.5
18 | Cc1c(NC(=O)c2cc(-c3ccccc3)on2)c(=O)n(-c2ccccc2)n1C | -27.7
19 | Cc1ccccc1Cn1cnc2ccccc21 | 7.06
20 | CCOc1cc(/C=C2\SC(=N)N(c3nonc3N)C2=O)ccc1OCCN1CCOCC1 | -7.52
21 | O=C(NNc1nc2c(F)cccc2s1)c1ccccc1 | 43.4
22 | CC(=O)Nc1nnc(SCC(=O)N2CCc3ccccc32)s1 | 19.7
23 | O=C(N/N=C/c1ccccc1OCc1ccccc1)c1cccnc1 | -1.69

Row | Compound | hERG current change (%, negative = inhibition) at 10uM [%]
24 | Cc1noc(C)c1COC(=O)c1ccc(S(=O)(=O)NCc2ccco2)cc1 | -20.4
25 | CCCNC(=O)NC(=O)CSc1nc(C)cs1 | 4.1
26 | NC(=S)N=Nc1c(O)n(CCCl)c2ccc(Br)cc12 | -27.4
27 | O=C(COCC(=O)NCc1ccccc1)NCc1ccccc1 | 5.28
28 | Cn1cc([N+](=O)[O-])c(C(=O)Nc2ccc(Br)cn2)n1 | -10.3
29 | Cc1ccc(NC(=O)COC(=O)c2cc(Cl)ccc2Cl)c(Br)c1 | 13.6
30 | Cc1cccc(CN2C(=O)/C(=C\c3ccc(C(=O)NCCN4CCOCC4)cc3)Sc3ccccc32)c1 | -9.27
31 | CC(OC(=O)Cn1c(C(F)(F)F)nc2ccccc21)C(N)=O (stereo not drawn) | 24.8
32 | CCc1cccc(NC(=O)C2CCN(S(=O)(=O)c3cccs3)CC2)c1 | -12.4
33 | CNC(=O)c1cc2cc(OC)ccc2oc1=N | 10.4
34 | CCOC(=O)Cc1csc(NC(=O)CSc2ccc(Br)cc2)n1 | -8.83
35 | COc1cc(C(C)=O)ccc1OC(=O)c1cc2cccc(OC)c2oc1=O | 2.53
36 | CCOc1cc(NC(=O)c2ccccn2)c(OCC)cc1NC(=O)c1ccc(Cl)cc1 | 23.5
37 | O=C(COc1ccccc1Cl)c1ccc[nH]1 | 12.4
38 | [O-]c1ccccc1-[n+]1c(-c2ccccc2)cc(-c2ccccc2)cc1-c1ccccc1 | -71.1
39 | COC(=O)C1=NN(c2cccc(C)c2)C2C(=O)N(c3ccccc3OC)C(=O)C12 (stereo not drawn) | -4.79
40 | CC(C)Cn1cnc2c(=O)oc3ccccc3c21 | -4.03
41 | Cc1ccc(C(=O)NCC(=O)NNC(=O)CN(C)S(=O)(=O)c2ccc(Cl)cc2)s1 | -12.4
42 | Cc1cccc(CSc2nc3c(c(=O)[nH]2)CCC3)c1 | -9.45
43 | COc1ccc(S(=O)(=O)Cc2ccc(C(=O)NCC(OC)OC)o2)cc1 | 17.4
44 | CCCc1sc(N)nc1-c1ccc(Cl)cc1 | 7.25
45 | Cc1ccccc1Cc1c(C)nc2c(C(=O)NCc3ccc4c(c3)OCO4)cnn2c1C | -1.79
